# Test results: the supplement of paper PMC8728848
# The list shows a part of the results.
# Columns and labels:
# Assay in all cases: glycan array binding signal (z-score within array); higher = stronger binding
# Conditions in all cases: glycan notation: IUPAC condensed, linker removed
# [1] = target: Man(a1-3)[Man(a1-6)]Man(a1-6)[Man(a1-3)]Man
# Method in brief: (§1)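 Glycan array data were curated from 3228 arrays in the Consortium for Functional Glycomics database and kept only where the protein sequence was available. Glycan names were converted to IUPAC-condensed notation, and columns mapping to the same glycan were averaged. The binding signal is a within-array Z-score, averaged across arrays of the same protein sequence at different concentrations or buffers and across linkers. Negative Z-scores can be read as non-binding.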
# [2] = target: Man(a1-3)[Man(a1-6)]Man(a1-6)[Man(a1-3)]Man(b1-4)GlcNAc(b1-4)GlcNAc
# Method in brief: as §1
# [3] = target: Man(a1-3)[Man(a1-6)]Man(b1-4)GlcNAc(b1-4)GlcNAc
# Method in brief: as §1
# [4] = target: Man(a1-3)[Man(a1-6)]Man(b1-4)GlcNAc(b1-4)[Fuc(a1-6)]GlcNAc
# Method in brief: as §1
# Man(a1-6)Man = target: Man(a1-6)Man
# Method in brief: as §1
# Man(b1-4)GlcNAc = target: Man(b1-4)GlcNAc
# Method in brief: as §1
# MurNAc(b1-4)GlcNAc = target: MurNAc(b1-4)GlcNAc
# Method in brief: as §1
# Neu5Ac(a2-3)Gal = target: Neu5Ac(a2-3)Gal
# Method in brief: as §1
# [5] = target: Neu5Ac(a2-3)Gal(b1-3)GalNAc
# Method in brief: as §1
# [6] = target: Neu5Ac(a2-3)Gal(b1-3)GalNAc(b1-3)Gal(a1-4)Gal(b1-4)Glc
# Method in brief: as §1
# [7] = target: Neu5Ac(a2-3)Gal(b1-3)GalNAc(b1-4)[Neu5Ac(a2-3)]Gal(b1-4)Glc
# Method in brief: as §1
# [8] = target: Neu5Ac(a2-3)Gal(b1-3)GalNAc(b1-4)[Neu5Ac(a2-8)Neu5Ac(a2-3)]Gal(b1-4)Glc
# Method in brief: as §1
# [9] = target: Neu5Ac(a2-3)Gal(b1-3)GalNAc6S
# Method in brief: as §1
# [10] = target: Neu5Ac(a2-3)Gal(b1-3)GlcNAc
# Method in brief: as §1
# [11] = target: Neu5Ac(a2-3)Gal(b1-3)GlcNAc(b1-2)Man
# Method in brief: as §1
# [12] = target: Neu5Ac(a2-3)Gal(b1-3)GlcNAc(b1-2)Man(a1-3)[GlcNAc(b1-4)][Neu5Ac(a2-3)Gal(b1-3)GlcNAc(b1-2)Man(a1-6)]Man(b1-4)GlcNAc(b1-4)GlcNAc
# Method in brief: as §1
# [13] = target: Neu5Ac(a2-3)Gal(b1-3)GlcNAc(b1-2)Man(a1-3)[Neu5Ac(a2-3)Gal(b1-3)GlcNAc(b1-2)Man(a1-6)]Man(b1-4)GlcNAc(b1-4)GlcNAc
# Method in brief: as §1
# [14] = target: Neu5Ac(a2-3)Gal(b1-3)GlcNAc(b1-3)Gal(b1-3)GlcNAc
# Method in brief: as §1
# [15] = target: Neu5Ac(a2-3)Gal(b1-3)GlcNAc(b1-3)Gal(b1-4)GlcNAc
# Method in brief: as §1
# [16] = target: Neu5Ac(a2-3)Gal(b1-3)GlcNAc(b1-3)GalNAc
# Method in brief: as §1
# [17] = target: Neu5Ac(a2-3)Gal(b1-3)GlcNAc(b1-4)Gal(b1-4)Glc
# Method in brief: as §1
# [18] = target: Neu5Ac(a2-3)Gal(b1-3)GlcNAc(b1-6)GalNAc
# Method in brief: as §1
# [19] = target: Neu5Ac(a2-3)Gal(b1-3)GlcNAc6S
# Method in brief: as §1
# [20] = target: Neu5Ac(a2-3)Gal(b1-3)[Fuc(a1-4)]GlcNAc
# Method in brief: as §1
# [21] = target: Neu5Ac(a2-3)Gal(b1-3)[Fuc(a1-4)]GlcNAc(b1-3)Gal(b1-3)[Fuc(a1-4)]GlcNAc
# Method in brief: as §1
# [22] = target: Neu5Ac(a2-3)Gal(b1-3)[Fuc(a1-4)]GlcNAc(b1-3)Gal(b1-4)[Fuc(a1-3)]GlcNAc
# Method in brief: as §1
# [23] = target: Neu5Ac(a2-3)Gal(b1-3)[GlcNAc(b1-6)]GalNAc
# Method in brief: as §1
# [24] = target: Neu5Ac(a2-3)Gal(b1-3)[Neu5Ac(a2-6)]GalNAc
# Method in brief: as §1
# [25] = target: Neu5Ac(a2-3)Gal(b1-3)[Neu5Ac(a2-6)]GlcNAc(b1-3)[Fuc(a1-3)[Gal(b1-4)]GlcNAc(b1-6)]Gal(b1-4)Glc
# Method in brief: as §1
# [26] = target: Neu5Ac(a2-3)Gal(b1-3)]Neu5Ac(a2-3)Gal(b1-4)]GlcNAc
# Method in brief: as §1
# Neu5Ac(a2-3)Gal(b1-4)Glc = target: Neu5Ac(a2-3)Gal(b1-4)Glc
# Method in brief: as §1
# [27] = target: Neu5Ac(a2-3)Gal(b1-4)GlcNAc
# Method in brief: as §1
# [28] = target: Neu5Ac(a2-3)Gal(b1-4)GlcNAc(b1-2)Man
# Method in brief: as §1
# [29] = target: Neu5Ac(a2-3)Gal(b1-4)GlcNAc(b1-2)Man(a1-3)[GlcNAc(b1-4)][Neu5Ac(a2-3)Gal(b1-4)GlcNAc(b1-2)Man(a1-6)]Man(b1-4)GlcNAc(b1-4)GlcNAc
# Method in brief: as §1
# [30] = target: Neu5Ac(a2-3)Gal(b1-4)GlcNAc(b1-2)Man(a1-3)[Neu5Ac(a2-3)Gal(b1-4)GlcNAc(b1-2)Man(a1-6)]Man(b1-4)GlcNAc(b1-4)GlcNAc
# Method in brief: as §1
# [31] = target: Neu5Ac(a2-3)Gal(b1-4)GlcNAc(b1-2)Man(a1-3)[Neu5Ac(a2-3)Gal(b1-4)GlcNAc(b1-2)Man(a1-6)]Man(b1-4)GlcNAc(b1-4)[Fuc(a1-6)]GlcNAc
# Method in brief: as §1
# [32] = target: Neu5Ac(a2-3)Gal(b1-4)GlcNAc(b1-2)Man(a1-3)[Neu5Ac(a2-6)Gal(b1-4)GlcNAc(b1-2)Man(a1-6)]Man(b1-4)GlcNAc(b1-4)GlcNAc
# Method in brief: as §1
# [33] = target: Neu5Ac(a2-3)Gal(b1-4)GlcNAc(b1-2)[Neu5Ac(a2-3)Gal(b1-4)GlcNAc(b1-4)]Man(a1-3)[GlcNAc(b1-4)][Neu5Ac(a2-3)Gal(b1-4)GlcNAc(b1-2)[Neu5Ac(a2-3)Gal(b1-4)GlcNAc(b1-6)]Man(a1-6)]Man(b1-4)GlcNAc(b1-4)GlcNAc
# Method in brief: as §1
binder,measurement,setting,value
SP8524D-bot-399-27-399 (Bacteroides ovatus) (protein) DAKYDTLDTHAYIEEALSSTSQKVTVQATGESFTTLNVHLSNLSSTDNHYKLVTDQSVLDTYNHINGTGYIMLPKDYYTLPETITVKAGQYAADALSIALKAFSQEMMKSGESYALPVKLVLQDGSISPMENTGTFVILAESIIEFSAPMFVGAPSLKANKFTESPETYSQYTIEVRFQVANTADRDRAVFKNGGDDANFILLRFEDPQSDNENYKAHSLVQIVGRNRLYLNPSNSFKPNEWQHLALVCDGSNYRLYINGVDSGVLSIPTGATTFSDVNWFCLGDDSYSRWGNCKILMSEARIWSVVRSASQIQNNMTQVSPKSVGLEAYWRFNEGQGNVFEDATGKGHTLTTSATPTWIDGILSTDKSTEWK,glycan array binding signal (z-score),[1],0.159
same,glycan array binding signal (z-score),[2],0.039
same,glycan array binding signal (z-score),[3],-0.341
same,glycan array binding signal (z-score),[4],-0.365
same,glycan array binding signal (z-score),Man(a1-6)Man,-0.433
same,glycan array binding signal (z-score),Man(b1-4)GlcNAc,-0.291
same,glycan array binding signal (z-score),MurNAc(b1-4)GlcNAc,-0.116
same,glycan array binding signal (z-score),Neu5Ac(a2-3)Gal,-0.419
same,glycan array binding signal (z-score),[5],0.438
same,glycan array binding signal (z-score),[6],-0.14
same,glycan array binding signal (z-score),[7],-0.508
same,glycan array binding signal (z-score),[8],0.193
same,glycan array binding signal (z-score),[9],-0.5
same,glycan array binding signal (z-score),[10],-0.179
same,glycan array binding signal (z-score),[11],-0.459
same,glycan array binding signal (z-score),[12],-0.249
same,glycan array binding signal (z-score),[13],-0.631
same,glycan array binding signal (z-score),[14],-0.249
same,glycan array binding signal (z-score),[15],-0.067
same,glycan array binding signal (z-score),[16],-0.628
same,glycan array binding signal (z-score),[17],-0.322
same,glycan array binding signal (z-score),[18],-0.136
same,glycan array binding signal (z-score),[19],0.296
same,glycan array binding signal (z-score),[20],-0.155
same,glycan array binding signal (z-score),[21],0.014
same,glycan array binding signal (z-score),[22],0.259
same,glycan array binding signal (z-score),[23],-0.093
same,glycan array binding signal (z-score),[24],-0.102
same,glycan array binding signal (z-score),[25],0.027
same,glycan array binding signal (z-score),[26],-0.212
same,glycan array binding signal (z-score),Neu5Ac(a2-3)Gal(b1-4)Glc,0.259
same,glycan array binding signal (z-score),[27],-0.297
same,glycan array binding signal (z-score),[28],0.064
same,glycan array binding signal (z-score),[29],-0.305
same,glycan array binding signal (z-score),[30],-0.238
same,glycan array binding signal (z-score),[31],-0.357
same,glycan array binding signal (z-score),[32],-0.574
same,glycan array binding signal (z-score),[33],-0.648
